# From publication PMC4336329 (PLoS ONE, 2015)
# In all, about 310,000 compounds went through this assay and about 14,000 (4.5%) showed an effect of 50% or more. Effects have a minus sign here. Some of the results follow.
# Molecular target: human ether-à-go-go-related gene (hERG) potassium channel (human, UniProt Q12809)
# Assay: primary screen, population patch clamp on CHO cells stably expressing hERG
# 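Also: peak tail current of the secondary pulse compared with the same well before compound.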
# Chain of human ether-à-go-go-related gene (hERG) potassium channel (Q12809 whole entry, looked up): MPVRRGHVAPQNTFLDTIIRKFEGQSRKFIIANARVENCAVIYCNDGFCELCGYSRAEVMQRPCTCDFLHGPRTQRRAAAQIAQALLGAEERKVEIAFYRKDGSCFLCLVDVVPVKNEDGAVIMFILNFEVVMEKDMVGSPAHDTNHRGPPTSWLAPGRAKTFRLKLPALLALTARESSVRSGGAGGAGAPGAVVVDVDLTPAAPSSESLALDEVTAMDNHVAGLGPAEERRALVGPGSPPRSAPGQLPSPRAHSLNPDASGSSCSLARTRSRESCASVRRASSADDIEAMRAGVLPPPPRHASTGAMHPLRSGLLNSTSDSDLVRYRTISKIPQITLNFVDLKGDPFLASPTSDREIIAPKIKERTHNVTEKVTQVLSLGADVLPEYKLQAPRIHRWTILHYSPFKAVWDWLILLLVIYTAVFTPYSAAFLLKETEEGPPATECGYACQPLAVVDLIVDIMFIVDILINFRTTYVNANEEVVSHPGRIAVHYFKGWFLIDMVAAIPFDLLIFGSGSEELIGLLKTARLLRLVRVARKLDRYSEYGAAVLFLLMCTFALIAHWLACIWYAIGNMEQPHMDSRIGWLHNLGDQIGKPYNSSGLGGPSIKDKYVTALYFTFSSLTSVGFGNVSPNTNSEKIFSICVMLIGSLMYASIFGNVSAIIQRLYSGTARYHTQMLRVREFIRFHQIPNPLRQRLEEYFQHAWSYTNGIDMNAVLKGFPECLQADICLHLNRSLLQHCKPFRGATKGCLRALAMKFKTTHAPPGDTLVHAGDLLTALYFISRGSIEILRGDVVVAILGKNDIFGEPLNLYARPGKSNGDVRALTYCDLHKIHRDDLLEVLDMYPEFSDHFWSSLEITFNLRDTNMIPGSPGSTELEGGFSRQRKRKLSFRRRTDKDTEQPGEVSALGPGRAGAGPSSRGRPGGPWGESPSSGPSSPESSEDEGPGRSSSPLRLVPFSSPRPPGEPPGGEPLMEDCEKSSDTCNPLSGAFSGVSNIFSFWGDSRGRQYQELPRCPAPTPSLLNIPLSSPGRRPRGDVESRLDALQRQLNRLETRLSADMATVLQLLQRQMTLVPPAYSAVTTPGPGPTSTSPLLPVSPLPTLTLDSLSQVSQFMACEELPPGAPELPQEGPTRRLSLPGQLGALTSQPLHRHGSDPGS
row,SMILES,"hERG current change (%, negative = inhibition) at 10uM"
1,Cc1ccc(N(C(=O)c2csnn2)C(C(=O)NC(C)(C)C)c2cccs2)cc1 (stereo not drawn),-45.4%
2,Cc1cccc(NC(=O)C2CCN(S(=O)(=O)c3ccc4ccccc4c3)CC2)n1,-0.00682%
3,CCCOC(=O)CCNc1n[nH]c(=O)[nH]c1=O,-3.66%
4,c1cc(-c2nnn(CCOCCn3nnc(-c4ccncc4)n3)n2)ccn1,-0.329%
5,Cc1ccc(-n2nc3c(N4CCC(C(=O)NCc5cccc(F)c5)CC4)nnc(C)c3c2C)cc1,-3.23%
6,O=C(O)c1ccc(NCc2ccncc2)cc1,-10%
7,Cc1ccc(CCNC(=O)CCc2nc3ccccc3[nH]2)cc1,-13.8%
8,COc1ccc(OC)c(NC(=O)CSc2nnc(CCCO)n2-c2ccccc2)c1,-16.5%
9,O=C(Nc1ccncc1)Nc1ccc(Cl)cc1Cl,30.3%
10,COc1ccc(CNC2CC(C)N(C)CC2C)cc1OC.Cl (stereo not drawn),12.9%
11,O=C(NCc1ccc(F)cc1)C(=O)NCC1OCCN1C(=O)c1ccc(Cl)cc1 (stereo not drawn),-43.2%
12,Cc1ccc(NC(=S)Nc2ncccc2C)c(C)c1,3.44%
13,CSc1cccc(NC(=O)c2ccco2)c1,-7.24%
14,O=C(COc1ccc(S(=O)(=O)N2CCOCC2)cc1Cl)NCCCn1ccnc1,11.1%
15,c1coc(C2Nc3cccc4cccc(c34)N2)c1,5.08%
16,CCS(=O)(=O)c1c(S(=O)(=O)CC)c2ccccn2c1C(N)=O,31.8%
17,COc1ccccc1NS(=O)(=O)c1cccc(C(=O)NNC(=O)c2ccc(O)c(Cl)c2)c1,-12.3%
18,Cc1cccc(Cl)c1NC(=O)N1CCCN(c2ncccc2[N+](=O)[O-])CC1,-17%
19,Cc1[nH]n(-c2cccc(Cl)c2)c(=O)c1C=NCC(C)C,6.48%
20,O=C(COC(=O)Cc1cccc2ccccc12)Nc1ccccc1-c1ccccc1,9.26%
21,COc1ccc(NC(=O)CN2C(=O)COc3ccc(S(=O)(=O)N4CCCCC4)cc32)cc1OC,5.18%
22,CCCc1nn(C)c(C(=O)Nc2cccc(Cl)c2)c1Cl,4.22%

row,SMILES,"hERG current change (%, negative = inhibition) at 10uM"
1,O=C(O)CC(CC(=O)N1CCOCC1)c1ccccc1 (stereo not drawn),9.58%
2,O=C(Nc1ccccc1F)C1CCCN(S(=O)(=O)c2ccccc2)C1 (stereo not drawn),-10.3%
3,Cc1nc2cccnc2nc1C,-0.447%
4,O=C(CCC(=O)OCC(=O)c1ccc([N+](=O)[O-])cc1)Nc1ccccc1Cl,4.2%
5,CCOC(=O)CC(=O)Nc1nnc(C(C)C)s1,18.4%
6,CCC(=O)Nc1nnc(SCC(=O)Nc2cccc(Cl)c2)s1,-41.5%
7,CC(=O)NCCN1C(=O)S/C(=C\c2cccs2)C1=O,-4.53%
8,Clc1ccc2oc(-c3ccccc3)nc2c1,8.2%
9,CCOCCn1ccc2c(OCC(=O)Nc3ccc(OC)cc3OC)cccc2c1=O,6.18%
10,COc1ccc(-c2sc(Nc3ccccc3)n[n+]2-c2ccccc2)cc1Br.[Cl-],-48.7%
11,Cc1cccc(-c2noc(CCCC(=O)NC3CCCCC3)n2)c1,11.3%
12,NC(=S)NN=C1c2cc(OCCN3CCOCC3)ccc2-c2ccc(OCCN3CCOCC3)cc21,-8.27%
13,O=C(COC(=O)c1ccccn1)NCc1ccc(Cl)cc1Cl,-8.18%
14,CC(C)c1ccc(NC(=O)Cn2nnc(C(=O)NCc3ccc4c(c3)OCO4)c2N)cc1,18%
15,Cc1cc(NC(=O)Cc2cccs2)nn1CC(=O)NCc1ccco1,4.69%
16,CCOc1ccc(N(CC(=O)NCc2ccco2)C(=O)CCC(=O)Nc2nccs2)cc1,-4.65%
17,Cc1c(CC(=O)N2CCN(C(=O)C3COc4ccccc4O3)CC2)c(=O)oc2cc(O)cc(O)c12 (stereo not drawn),24.8%
18,CC(=O)Nc1ccc(C=C(C(C)=O)C(C)=O)cc1,2.2%
19,Cc1ccc(S(=O)(=O)N(C)C)cc1NC(=O)Nc1ccccc1F,9.15%
20,Cc1ccnc(NC(=O)c2ccccc2NC(=O)C(C)(C)C)c1,-10.3%
21,NS(=O)(=O)c1ccc(CNC(=O)c2cccnc2Cl)cc1,10.1%
22,CCCCn1nc(NC(=O)c2cccs2)c2cc3ccccc3nc21,-5.58%

row,SMILES,"hERG current change (%, negative = inhibition) at 10uM"
1,c1ccc(CN2CCN(C(c3ccccc3)c3nnnn3Cc3ccccc3)CC2)cc1 (stereo not drawn),-64.7%
2,O=C(O)c1cc(-c2ccco2)nc2cc3ccccc3cc12,16.2%
3,Nc1nc(SCc2ccc(Cl)cc2Cl)ns1,-5.61%
4,CC(C)CNC(=O)Nc1ccc(F)c(Cl)c1,-2.1%
5,COc1ccc(-c2nn(-c3ccccc3)cc2C(=O)N2c3ccc(C)cc3C3CN(C)CCC32)cc1 (stereo not drawn),-31.7%
6,Nc1ccc(C2(c3ccc(N)cc3)c3ccccc3C(=O)c3ccccc32)cc1,13.2%
7,CCOC(=O)C1CC=C(Cl)CC1C(=O)Nc1nccs1 (stereo not drawn),9.42%
8,Cc1ccc(NCC(=O)N/N=C\c2cccc(O)c2)cc1,1.98%
9,COc1cc(OCc2ccccc2)c(C(=O)/C=C/c2ccc3c(c2)OCO3)c(OC)c1OC,-0.152%
10,Cc1ccc(N=C2NC(=O)/C(=C/c3cccs3)S2)cc1C,8.9%
11,CCCCn1c(N)c(N(CCOC)C(=O)C2CCN(S(=O)(=O)c3ccc(Cl)cc3)CC2)c(=O)[nH]c1=O,20.7%
12,COC(=O)c1sc(N)c(C(=O)OC)c1COC(=O)CNS(=O)(=O)c1ccc(C)cc1,-4.4%
13,O=C(Nc1cccc(S(=O)(=O)NC2=NCCC2)c1)c1cc(Cl)ccc1[N+](=O)[O-],2.97%
14,CN(Cc1ccccc1)S(=O)(=O)c1cccc2cccnc12,-9.39%
15,O=C(N/N=C/c1ccncc1)c1cccc([N+](=O)[O-])c1,-5.83%
16,O=C(Nc1ccccc1Cl)c1ccccc1,4.52%
17,O=S(=O)(Nc1cccc(-c2ccc(N3CCCCCC3)nn2)c1)c1ccccc1F,11.7%
18,COc1ccc(C2CC(=O)Oc3c(C(CCN4CCN(c5ccccc5)CC4)c4ccc(N(C)C)cc4)c(OC)cc(OC)c32)cc1 (stereo not drawn),18.4%
19,CC(C)(C)C(=O)C[n+]1ccc(C(N)=O)cc1.[Br-],0.811%
20,O=C(C/C=N/OCc1ccc(Cl)cc1Cl)c1ccccc1,-6.79%
21,O=c1nc2ccccc2c2n1CC(CN1CCN(Cc3ccccc3)CC1)N2 (stereo not drawn),-66.1%
22,CCCOC(=O)C1C2C=CC(C2)C1C(=O)OCC(=O)c1ccccc1 (stereo not drawn),-18.1%

row,SMILES,"hERG current change (%, negative = inhibition) at 10uM"
1,Cc1ccc(S(=O)(=O)c2nc(S(C)(=O)=O)sc2N2CCC(O)CC2)cc1,-11.8%
2,C=CCn1c(SCC(=O)N2CCN(c3ccccc3)CC2)nnc1-c1ccco1,-25.7%
3,CCCCn1c(N)c(N(CCOC)C(=O)c2ccc(-n3c(C)ccc3C)cc2)c(=O)[nH]c1=O,8.54%
4,CC1(NC(=S)Nc2ccccc2)CCS(=O)(=O)C1 (stereo not drawn),13.8%
5,O=C(N=C1SC2CS(=O)(=O)CC2N1c1ccc(Cl)cc1Cl)C1CCCO1 (stereo not drawn),0.438%
6,COc1ccc(N2CC(=O)N(c3ccccc3)C2=S)cc1,3.25%
7,CC(C)NC(=O)CN(Cc1ccc(F)cc1)C(=O)CCC(=O)Nc1nccs1,6.82%
8,CCC(C)(C(=O)NC1CCCCC1)N(C)C(=O)c1ccccn1 (stereo not drawn),2.9%
9,COC(=O)c1ccc(/C=C/c2c(-c3ccsc3)oc3ccc(N4CCOCC4)cc23)cc1,20.1%
10,CCn1c(SCC(=O)Nc2oc(C)c3c(C)n[nH]c(=O)c23)nc2sc(C)c(C)c2c1=O,-61.7%
11,COC(=O)c1ccccc1NC(=O)COC(C)=O,4.95%
12,COc1cc(NC(=O)CSc2nnc3n2C(C)(C)Cc2ccccc2-3)cc(OC)c1,10%
13,CCS(=O)(=O)c1ccc(-c2cccc(NC(=O)c3ccco3)c2)nn1,-3.4%
14,CCN=C(Nc1cccc(F)c1)SC1CC(=O)N(c2ccc(OC)cc2)C1=O (stereo not drawn),-3.5%
15,Cc1ccccc1C(=O)N=c1ccn(-c2nc3ccccc3nc2NS(=O)(=O)c2ccc(F)cc2)cc1,21.8%
16,Cl.NC12CC3CC(CC(C3)C1)C2,3.89%
17,C[C@H](NC(=O)C1CCN(S(=O)(=O)c2ccccc2)CC1)C(=O)NCc1cccc(C(F)(F)F)c1,-2.33%
18,O=C(COc1ccccc1)NNc1c2ccccc2nc2ccccc12,6.67%
19,O=C(NNC(=O)c1cccs1)c1cccc(F)c1,10.1%
20,O=C1NNC(c2ccccc2)=N/C1=C\c1ccc(Cl)cc1,-29.3%
21,Cc1cc(C)cc(C(=O)NCC(=O)OCC(=O)N2CCN(S(=O)(=O)c3ccc4ccccc4c3)CC2)c1,-4.69%
